Assay results from the antibiotic and cytotoxicity screens of Wong et al. (2023).
This is one part of the list.

test system: HSkMC (human skeletal muscle cells); assay: cytotoxicity call (relative viability < 0.9); conditions: 10 µM

Q: For `COc1ccc2c3c([nH]c2c1)[C@@H](CO)N(C[C@]13CCN(CC1)Cc1ccccc1)C(=O)CN1CCOCC1`, which cytotoxicity call is on record?
A: inactive

Q: `Cc1ccc(-c2cnc3c(c2)C(=O)N([C@@H](C)CO)C[C@H](C)[C@@H](CN(C)C(=O)Cc2cccnc2)O3)cc1` was tested. Which cytotoxicity call did it give?
A: inactive

Q: With `C[C@@H]1CN([C@H](C)CO)C(=O)Cc2cc(NC(=O)CCN3CCOCC3)ccc2O[C@@H]1CN(C)Cc1ccc(C(=O)Nc2ccccc2N)cc1` as the molecule, how does the cytotoxicity call read?
A: inactive

Q: With `CCOC(=O)N1CCC(NS(=O)(=O)c2cccc(S(=O)(=O)[C@H]3CCS(=O)(=O)C3)c2)CC1` as the molecule, how does the cytotoxicity call read?
A: inactive

Q: For `COc1ccc(S(=O)(=O)Nc2cccc3c2O[C@@H](CN(C)S(=O)(=O)c2ccc(C)cc2)[C@@H](C)CN([C@@H](C)CO)C3=O)cc1`, which cytotoxicity call is on record?
A: inactive

Q: With `O=C1NC[C@@H]2CN(C(=O)c3cnccn3)C[C@@H]12` as the molecule, how does the cytotoxicity call read?
A: inactive

Q: `C[C@@H]1CN([C@@H](C)CO)C(=O)c2cccc(NS(=O)(=O)c3ccc(F)cc3)c2O[C@H]1CN(C)Cc1ccncc1` was tested. Which cytotoxicity call did it give?
A: inactive

Q: For `CS(=O)(=O)NC[C@@H]1OC[C@@H]2CN(C(=O)c3ccnnc3)CC[C@@H]21`, which cytotoxicity call is on record?
A: inactive

Q: For `COC(=O)C1=CO[C@@H](O[C@@H]2O[C@H](CO)[C@@H](O)[C@H](O)[C@H]2O)/C(=C\CO)[C@@H]1CC(=O)OCCc1ccc(O)cc1`, which cytotoxicity call is on record?
A: inactive

Q: `C[C@H](CO)N1C[C@H](C)[C@H](CN(C)S(C)(=O)=O)Oc2ncc(C#CC(C)(C)O)cc2C1=O` was tested. Which cytotoxicity call did it give?
A: inactive

Q: How did the cytotoxicity call turn out when `C[C@H]1CN([C@@H](C)CO)C(=O)CCCn2cc(nn2)CO[C@H]1CN(C)C(=O)C1CC1` was run?
A: inactive

Q: How did the cytotoxicity call turn out when `COc1ccc(CN(C)C[C@@H]2Oc3ccc(NC(=O)CCN4CCOCC4)cc3C(=O)N([C@@H](C)CO)C[C@@H]2C)cc1` was run?
A: inactive

Q: Which cytotoxicity call does the source give for `C[C@@H]1CCCCO[C@H](CN(C)C(=O)Nc2ccc(F)cc2)[C@H](C)CN([C@@H](C)CO)C(=O)c2cc(NS(=O)(=O)c3cccs3)ccc2O1` here?
A: inactive

Q: Which cytotoxicity call does the source give for `O=C1NCCOc2ccc([N+](=O)[O-])cc21` here?
A: inactive

Q: How did the cytotoxicity call turn out when `C[C@@H]1CN([C@@H](C)CO)C(=O)Cc2cc(NC(=O)CCN3CCOCC3)ccc2O[C@H]1CN(C)C(=O)Nc1ccc2c(c1)OCO2` was run?
A: inactive

Q: How did the cytotoxicity call turn out when `O=C(N[C@@H]1C=C[C@@H](CC(=O)N2CCOCC2)O[C@H]1CO)c1ccccn1` was run?
A: inactive

Q: `COc1ccc(-c2nc3cc(C4=NNC(=O)CC4C)ccc3[nH]2)cc1` (stereo not given) was tested. Which cytotoxicity call did it give?
A: inactive

Q: With `C[C@@H]1CN([C@@H](C)CO)C(=O)c2cc(C#CCN(C)C)cnc2O[C@H]1CN(C)S(=O)(=O)c1ccccc1` as the molecule, how does the cytotoxicity call read?
A: inactive

Q: With `C[C@@H]1CN([C@@H](C)CO)C(=O)c2cc(NC(=O)Nc3ccc(C(F)(F)F)cc3)ccc2O[C@@H](C)CCCCO[C@H]1CN(C)Cc1ccc2c(c1)OCO2` as the molecule, how does the cytotoxicity call read?
A: active

Q: With `Cc1noc(C)c1NC(=O)N(C)C[C@@H]1Oc2ccc(NS(=O)(=O)c3ccccc3)cc2C(=O)N([C@@H](C)CO)C[C@@H]1C` as the molecule, how does the cytotoxicity call read?
A: inactive

Q: How did the cytotoxicity call turn out when `CCCNC(=O)N[C@H]1C=C[C@H](CC(=O)N2CCN(C)CC2)O[C@@H]1CO` was run?
A: inactive

Q: `COC(=O)C[C@](O)(CCCC(C)(C)O)C(=O)O[C@@H]1C(OC)=C[C@]23CCCN2CCc2cc4c(cc2[C@H]13)OCO4` was tested. Which cytotoxicity call did it give?
A: active

Q: Which cytotoxicity call does the source give for `C[C@@H]1CCCCO[C@@H](CN(C)C(=O)CCCN(C)C)[C@H](C)CN([C@@H](C)CO)C(=O)c2cc(NC(=O)Nc3ccc(C(F)(F)F)cc3)ccc2O1` here?
A: inactive

Q: For `C[C@@H]1CN([C@H](C)CO)C(=O)c2cc(NC(=O)c3ccccc3)ccc2O[C@@H](C)CCCCO[C@H]1CN(C)Cc1ccc2c(c1)OCO2`, which cytotoxicity call is on record?
A: inactive

Q: For `C[C@@H]1CCCCO[C@@H](CN(C)S(=O)(=O)c2cccs2)[C@H](C)CN([C@H](C)CO)C(=O)c2cc(NC(=O)Nc3ccc(F)cc3)ccc2O1`, which cytotoxicity call is on record?
A: inactive

Q: For `COc1ccc(COC[C@]23N=C4SCCCN4[C@H](c4ccccc4O2)[C@H]3CO[Si](C)(C)C(C)(C)C)cc1`, which cytotoxicity call is on record?
A: inactive

Q: Which cytotoxicity call does the source give for `C[C@@H]1CN([C@@H](C)CO)C(=O)c2cc(NS(=O)(=O)c3cn(C)cn3)ccc2O[C@@H](C)CCCCO[C@H]1CN(C)S(=O)(=O)c1cn(C)cn1` here?
A: inactive

Q: `C[C@H]1CN([C@@H](C)CO)C(=O)Cc2cc(NS(C)(=O)=O)ccc2O[C@H]1CN(C)C(=O)Nc1ccc2c(c1)OCO2` was tested. Which cytotoxicity call did it give?
A: inactive

Q: For `COc1ccc(S(=O)(=O)N(C)C[C@@H]2Oc3ccc(NS(=O)(=O)c4ccc(F)cc4)cc3C(=O)N([C@H](C)CO)C[C@H]2C)cc1`, which cytotoxicity call is on record?
A: inactive

Q: With `O=C(C[C@H]1CC[C@@H]2[C@H](COC[C@@H](O)CN2C(=O)Nc2ccc3c(c2)OCO3)O1)N1CCN(c2ccccc2)CC1` as the molecule, how does the cytotoxicity call read?
A: inactive

Q: For `C[C@@H]1CCCCO[C@@H](CN(C)C(=O)c2ccccc2)[C@@H](C)CN([C@H](C)CO)C(=O)c2cc(NC(=O)Nc3ccc4c(c3)OCO4)ccc2O1`, which cytotoxicity call is on record?
A: inactive

Q: With `O=C1O[C@H](c2ccccc2)[C@H](c2ccccc2)N2[C@H]1[C@@H](C(=O)Nc1nc3ccccc3s1)[C@]1(C(=O)Nc3ccccc31)[C@H]2c1ccc(OCCO)cc1` as the molecule, how does the cytotoxicity call read?
A: inactive

Q: With `C[C@@H]1CCCCO[C@@H](CN(C)Cc2ccc(C(F)(F)F)cc2)[C@@H](C)CN([C@H](C)CO)C(=O)c2cc(NC(=O)NC3CCCCC3)ccc2O1` as the molecule, how does the cytotoxicity call read?
A: inactive

Q: Which cytotoxicity call does the source give for `CCNc1nc(NCC)nc(OCC#N)n1` here?
A: inactive

Q: Which cytotoxicity call does the source give for `C[C@@H]1CCCCO[C@H](CN(C)Cc2ccccc2)[C@H](C)CN([C@H](C)CO)C(=O)c2cc(NS(=O)(=O)c3ccccc3)ccc2O1` here?
A: inactive

Q: `C[C@H]1CN([C@@H](C)CO)C(=O)c2cc(NC(=O)CCC(F)(F)F)ccc2O[C@H]1CN(C)S(=O)(=O)c1cn(C)cn1` was tested. Which cytotoxicity call did it give?
A: inactive

Q: For `CC1=CC2=NC(=O)C[C@](C)(C(=O)O)N2C=C1`, which cytotoxicity call is on record?
A: inactive

Q: With `Cc1ccc(S(=O)(=O)Nc2ccc3c(c2)C(=O)N([C@H](C)CO)C[C@H](C)[C@H](CN(C)Cc2ccc4c(c2)OCO4)OCCCC[C@H](C)O3)cc1` as the molecule, how does the cytotoxicity call read?
A: inactive

Q: With `C[C@@H]1CCCCO[C@H](CN(C)C(=O)Nc2ccc(F)cc2)[C@@H](C)CN([C@H](C)CO)C(=O)c2cc(NC(=O)Nc3ccc(C(F)(F)F)cc3)ccc2O1` as the molecule, how does the cytotoxicity call read?
A: inactive

Q: For `Cc1noc(C)c1NC(=O)Nc1ccc2c(c1)CC(=O)N([C@H](C)CO)C[C@H](C)[C@@H](CN(C)S(=O)(=O)c1ccccc1)O2`, which cytotoxicity call is on record?
A: inactive
